# Assay results as given in the supplement of paper PMC8728848.
# This is one part of the list.
# Tests used:
# Assay in all cases: glycan array binding signal (z-score within array); higher = stronger binding
# Conditions in all cases: glycan notation: IUPAC condensed, linker removed
# [1] = target: Gal(b1-3)GlcNAc(b1-2)Man(a1-3)[Gal(b1-3)GlcNAc(b1-2)Man(a1-6)]Man(b1-4)GlcNAc(b1-4)[Fuc(a1-6)]GlcNAc
# Method in brief: (§1)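 From the Consortium for Functional Glycomics database, 3228 arrays were curated, keeping only those whose protein sequence was available. Binding is given as a within-array Z-score averaged across arrays sharing a protein sequence and across linkers. Negative Z-scores can be read as non-binding.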
# [2] = target: Gal(b1-3)GlcNAc(b1-2)Man(a1-3)[GlcNAc(b1-4)][Gal(b1-3)GlcNAc(b1-2)Man(a1-6)]Man(b1-4)GlcNAc(b1-4)GlcNAc
# Method in brief: as §1
# [3] = target: Gal(b1-3)GlcNAc(b1-2)[Gal(b1-3)GlcNAc(b1-6)]Man(a1-6)[Gal(b1-3)GlcNAc(b1-2)Man(a1-3)]Man(b1-4)GlcNAc(b1-4)GlcNAc
# Method in brief: as §1
# [4] = target: Gal(b1-3)GlcNAc(b1-3)Gal(b1-3)GlcNAc
# Method in brief: as §1
# [5] = target: Gal(b1-3)GlcNAc(b1-3)Gal(b1-4)Glc
# Method in brief: as §1
# [6] = target: Gal(b1-3)GlcNAc(b1-3)Gal(b1-4)GlcNAc
# Method in brief: as §1
# [7] = target: Gal(b1-3)GlcNAc(b1-3)Gal(b1-4)GlcNAc(b1-2)Man(a1-3)[Gal(b1-3)GlcNAc(b1-3)Gal(b1-4)GlcNAc(b1-2)Man(a1-6)]Man(b1-4)GlcNAc(b1-4)GlcNAc
# Method in brief: as §1
# [8] = target: Gal(b1-3)GlcNAc(b1-3)Gal(b1-4)GlcNAc(b1-2)[Gal(b1-3)GlcNAc(b1-3)Gal(b1-4)GlcNAc(b1-6)]Man(a1-6)[Gal(b1-3)GlcNAc(b1-3)Gal(b1-4)GlcNAc(b1-2)Man(a1-3)]Man(b1-4)GlcNAc(b1-4)[Fuc(a1-6)]GlcNAc
# Method in brief: as §1
# [9] = target: Gal(b1-3)GlcNAc(b1-3)Gal(b1-4)GlcNAc(b1-3)Gal(b1-4)GlcNAc(b1-2)[Gal(b1-3)GlcNAc(b1-3)Gal(b1-4)GlcNAc(b1-3)Gal(b1-4)GlcNAc(b1-6)]Man(a1-6)[Gal(b1-3)GlcNAc(b1-3)Gal(b1-4)GlcNAc(b1-3)Gal(b1-4)GlcNAc(b1-2)Man(a1-3)]Man(b1-4)GlcNAc(b1-4)[Fuc(a1-6)]GlcNAc
# Method in brief: as §1
# [10] = target: Gal(b1-3)GlcNAc(b1-3)Gal(b1-4)GlcNAc(b1-6)[Gal(b1-3)GlcNAc(b1-3)]Gal(b1-4)Glc
# Method in brief: as §1
# [11] = target: Gal(b1-3)GlcNAc(b1-3)Gal(b1-4)[Fuc(a1-3)]GlcNAc
# Method in brief: as §1
# [12] = target: Gal(b1-3)GlcNAc(b1-3)Gal(b1-4)[Fuc(a1-3)]GlcNAc(b1-6)[Gal(b1-3)GlcNAc(b1-3)]Gal(b1-4)Glc
# Method in brief: as §1
# [13] = target: Gal(b1-3)GlcNAc(b1-3)GalNAc
# Method in brief: as §1
# [14] = target: Gal(b1-3)GlcNAc(b1-6)Gal(b1-4)GlcNAc
# Method in brief: as §1
# [15] = target: Gal(b1-3)GlcNAc(b1-6)GalNAc
# Method in brief: as §1
# [16] = target: Gal(b1-3)GlcNAc(b1-6)[Gal(b1-3)]GalNAc
# Method in brief: as §1
# Gal(b1-3)GlcNAc6S = target: Gal(b1-3)GlcNAc6S
# Method in brief: as §1
# [17] = target: Gal(b1-3)[Fuc(a1-4)]GlcNAc
# Method in brief: as §1
# [18] = target: Gal(b1-3)[Fuc(a1-4)]GlcNAc(b1-2)Man
# Method in brief: as §1
# [19] = target: Gal(b1-3)[Fuc(a1-4)]GlcNAc(b1-2)Man(a1-3)[Gal(b1-3)[Fuc(a1-4)]GlcNAc(b1-2)Man(a1-6)]Man(b1-4)GlcNAc(b1-4)[Fuc(a1-6)]GlcNAc
# Method in brief: as §1
# [20] = target: Gal(b1-3)[Fuc(a1-4)]GlcNAc(b1-3)Gal(b1-3)[Fuc(a1-4)]GlcNAc
# Method in brief: as §1
# [21] = target: Gal(b1-3)[Fuc(a1-4)]GlcNAc(b1-3)Gal(b1-4)[Fuc(a1-3)]GlcNAc
# Method in brief: as §1
# [22] = target: Gal(b1-3)[Fuc(a1-4)]GlcNAc(b1-6)GalNAc
# Method in brief: as §1
# [23] = target: Gal(b1-3)[GlcNAc(b1-6)]GalNAc
# Method in brief: as §1
# [24] = target: Gal(b1-3)[Neu5Ac(a2-6)]GalNAc
# Method in brief: as §1
# [25] = target: Gal(b1-3)[Neu5Ac(a2-6)]GlcNAc(b1-4)Gal(b1-4)Glc
# Method in brief: as §1
# [26] = target: Gal(b1-3)[Neu5Ac(b2-6)]GalNAc
# Method in brief: as §1
# Gal(b1-4)Gal = target: Gal(b1-4)Gal
# Method in brief: as §1
# [27] = target: Gal(b1-4)GalNAc(a1-3)[Fuc(a1-2)]Gal(b1-4)GlcNAc
# Method in brief: as §1
# [28] = target: Gal(b1-4)GalNAc(b1-3)[Fuc(a1-2)]Gal(b1-4)GlcNAc
# Method in brief: as §1
# Gal(b1-4)Glc = target: Gal(b1-4)Glc
# Method in brief: as §1
# Gal(b1-4)Glc6S = target: Gal(b1-4)Glc6S
# Method in brief: as §1
# Gal(b1-4)GlcNAc = target: Gal(b1-4)GlcNAc
# Method in brief: as §1
# [29] = target: Gal(b1-4)GlcNAc(a1-6)Gal(b1-4)GlcNAc
# Method in brief: as §1
# Gal(b1-4)GlcNAc(b1-2)Man = target: Gal(b1-4)GlcNAc(b1-2)Man
# Method in brief: as §1
# [30] = target: Gal(b1-4)GlcNAc(b1-2)Man(a1-3)Man(b1-4)GlcNAc(b1-4)GlcNAc
# Method in brief: as §1
# [31] = target: Gal(b1-4)GlcNAc(b1-2)Man(a1-3)[Gal(b1-4)GlcNAc(b1-2)Man(a1-6)]Man(b1-4)GlcNAc(b1-4)GlcNAc
# Method in brief: as §1
binder,measurement,setting,value
PX14343B-bfa-546-20-546 (Bacteroides fragilis) (protein) CDLERYPLTDLSEETFWNSESNAELALTSLYRGSLTDGVEYNPSDWWSYHGMIMMEHLSDNAFDRRGENNPFFKISSGNLTADNAFIKRYWETSYKRIGYCNRFLVGIQNSSESEKKTRMIAEARFLRATQYFYLASYFKNVPLVENVLTGEEANNVTKTSQADILKWCVTEFTAAAADLPRFSAIPAGEAGRACKQAALAFLGRTCMLQKDWKSGAKAFHDIMELGDNAINANYQELFYPSTGTSNKENIFYIQYLENYLGTGLPQHALSAKDGGWSLVNPAADLYESYEFKDGTPFSYDDPRYDPSNLGKDRDPRLDYTIYYNGAIFMGTEYKMSPDYSAAKKEKLDYTSEASRTGFMMRKYFEESTPINDVQSANGLTPVIRYAEVLLGYLECLVEDNQTITQGILDETINAVRGRASVNMPPVTEVTPAKLREIVRHERRIELAMEGIRYWDIMRWGIAHEVLSQKIWGAPYPGSTQYATTTKEVDPTGNYRWYVGKRAFRNPTDYTWPIPQSEQNINPNLRD,glycan array binding signal (z-score),[1],-0.115
same,glycan array binding signal (z-score),[2],-0.122
same,glycan array binding signal (z-score),[3],-0.117
same,glycan array binding signal (z-score),[4],-0.124
same,glycan array binding signal (z-score),[5],-0.119
same,glycan array binding signal (z-score),[6],-0.123
same,glycan array binding signal (z-score),[7],-0.127
same,glycan array binding signal (z-score),[8],-0.111
same,glycan array binding signal (z-score),[9],-0.113
same,glycan array binding signal (z-score),[10],-0.093
same,glycan array binding signal (z-score),[11],-0.124
same,glycan array binding signal (z-score),[12],-0.131
same,glycan array binding signal (z-score),[13],-0.12
same,glycan array binding signal (z-score),[14],-0.115
same,glycan array binding signal (z-score),[15],-0.123
same,glycan array binding signal (z-score),[16],-0.108
same,glycan array binding signal (z-score),Gal(b1-3)GlcNAc6S,-0.123
same,glycan array binding signal (z-score),[17],-0.115
same,glycan array binding signal (z-score),[18],-0.115
same,glycan array binding signal (z-score),[19],-0.104
same,glycan array binding signal (z-score),[20],-0.123
same,glycan array binding signal (z-score),[21],-0.11
same,glycan array binding signal (z-score),[22],-0.109
same,glycan array binding signal (z-score),[23],-0.12
same,glycan array binding signal (z-score),[24],-0.121
same,glycan array binding signal (z-score),[25],-0.119
same,glycan array binding signal (z-score),[26],-0.119
same,glycan array binding signal (z-score),Gal(b1-4)Gal,-0.114
same,glycan array binding signal (z-score),[27],-0.119
same,glycan array binding signal (z-score),[28],-0.137
same,glycan array binding signal (z-score),Gal(b1-4)Glc,-0.121
same,glycan array binding signal (z-score),Gal(b1-4)Glc6S,-0.113
same,glycan array binding signal (z-score),Gal(b1-4)GlcNAc,-0.128
same,glycan array binding signal (z-score),[29],-0.116
same,glycan array binding signal (z-score),Gal(b1-4)GlcNAc(b1-2)Man,-0.112
same,glycan array binding signal (z-score),[30],-0.117
same,glycan array binding signal (z-score),[31],-0.117
